Experimental data from the supplement of paper PMC9446081.
Out of some 39,000 compounds screened, about 220 (0.56%) showed activity. The list shows a part of the results.
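Also: static incubation at 37 °C against the wild-type strain, values averaged over two biological replicates.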

These molecules were tested on Escherichia coli K-12 BW25113 (assay: relative growth (OD600 normalised to plate interquartile mean) (fraction); higher = less growth inhibition, active = 0.2 or less). Settings: 50 µM; LB; incubation time: overnight (16-24 h).
With `C[C@@H]1CN([C@@H](C)CO)C(=O)c2cc(NC(=O)CCCCCC(=O)Nc3ccccc3N)ccc2O[C@H]1CN(C)C(=O)Nc1ccccc1` the relative growth was inactive: 1.02.
For `C=CCC[C@@H](Cc1ccc(F)cc1)C(=O)OC[C@H]1CCCN1C(=O)[C@H](CC=C)CC(=O)N(CCO)Cc1ccccc1`, the relative growth was inactive: 1.05.
`COC(=O)CCn1cc(F)c(N)nc1=O` was tested, and the relative growth was inactive: 0.948.
With `COCC(=O)Nc1ccc2c(c1)OC[C@@H](C)N(C(=O)Cc1ccccn1)C[C@@H](C)[C@H](OC)CN(C)C2=O` the relative growth was inactive: 0.997.
In the case of `COCCOC(=O)N1C(=O)[C@@]2(c3cc(C#CC4(O)CCCCCC4)ccc31)[C@H](c1ccc(OCCO)cc1)N1[C@H](c3ccccc3)[C@H](c3ccccc3)OC(=O)[C@H]1[C@@H]2C(=O)N1CCCCCCC1`, the relative growth is reported as inactive: 1.04.
With `Cc1noc(C)c1S(=O)(=O)N(C)C[C@@H]1OCc2cnnn2CCCC(=O)N([C@@H](C)CO)C[C@@H]1C` the relative growth was inactive: 0.977.
For `O=C(O)[C@@H]1C2C=CC3(O2)C1C(=O)N1CCS[C@H]13` (stereo partly specified), the relative growth was inactive: 0.999.
With `CS(=O)(=O)N1C[C@@H](O)COC[C@H]2O[C@@H](CC(=O)NCc3ccccc3)CC[C@@H]21` the relative growth was inactive: 0.993.
For `COCC(=O)N(C)C[C@H]1Oc2cc(C#Cc3ccccc3)ccc2S(=O)(=O)N([C@H](C)CO)C[C@H]1C`, the relative growth was inactive: 0.902.
In the case of `COc1ccc(S(=O)(=O)N(C)C[C@@H]2Oc3ccc(NS(=O)(=O)c4cn(C)cn4)cc3C(=O)N([C@@H](C)CO)C[C@@H]2C)cc1`, the relative growth is reported as inactive: 1.01.
`O=C(CCCCCCC(=O)Nc1ccc([C@H]2O[C@@H](COc3ccccc3)C[C@H](c3ccccc3)O2)cc1)NO` was tested, and the relative growth was inactive: 0.988.
In the case of `C[C@@H]1CCCCO[C@H](CN(C)Cc2ccccc2)[C@H](C)CN([C@H](C)CO)C(=O)c2cc(NC(=O)c3ccncc3)ccc2O1`, the relative growth is reported as inactive: 0.977.
With `C[C@@H]1CCCCO[C@@H](CN(C)Cc2ccc(C(=O)O)cc2)[C@@H](C)CN([C@H](C)CO)C(=O)c2cc(NS(=O)(=O)c3ccc(Cl)cc3)ccc2O1` the relative growth was inactive: 1.01.
With `C[C@@H]1CCCCO[C@@H](CN(C)C(=O)C2CCCCC2)[C@H](C)CN([C@@H](C)CO)C(=O)c2cc(NC(=O)Nc3ccc(C(F)(F)F)cc3)ccc2O1` the relative growth was inactive: 1.08.
With `CNC(=O)C[C@@H]1CC[C@H]2[C@@H](COC[C@@H](O)CN2C(=O)Nc2cccc(OC)c2)O1` the relative growth was inactive: 0.961.
With `C[C@H](CO)N1C[C@H](C)[C@H](CN(C)C(=O)Nc2ccc(F)cc2)OCCCC[C@H](C)Oc2ccc(NC(=O)Nc3ccc4c(c3)OCO4)cc2C1=O` the relative growth was inactive: 1.03.
